Data from PubChem BioAssay AID686978 (National Center for Advancing Translational Sciences (NCATS), 2013).
Out of some 420,000 compounds screened, about 64,000 (15%) were called active. Inconclusive results, whose numbers are uncertain, are shown with a selection of clear calls. Calls follow the shape of the dose curve; as a rule, active = well fitted inhibition curve with a large enough effect; inconclusive = small, poorly fitted or top-dose-only effect; inactive = flat fitted curve, though single readings scatter. No potency is given beside an inconclusive call; the fits are too rough.

Assay: qHTS for Inhibitors of human tyrosyl-DNA phosphodiesterase 1 (TDP1): qHTS in cells in absence of CPT; also: nearly all actives have a fitted effect of over 55% in size
Conditions: DT40 Tdp1-/- hTDP1 cells, no CPT, ATP luminescence, 48 h; series mostly up to 46.2 µM
In short: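 DT40 Tdp1-/-;hTDP1 cells, no CPT (DMSO vehicle only), 400 cells/well; compounds pin-transferred; ≥48 hr, 37 °C; CellTiter-Glo 30 min RT dark, luminescence read.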
Potency is read from the fitted curve at half-maximal effect; tags tell the direction and shape of the fitted curve.

SMILES | Potency
CC(=O)c1sc(NC(=O)C(C)C)nc1C | inactive
CCCN1CCN(C(=S)Nc2ccc3nc(N4CCN(CC)CC4)cc(C)c3c2)CC1 | inconclusive [inhibitor, single point]
Cc1ccc(Cc2nnc(SCC(=O)Nc3ccccc3Cl)[nH]c2=O)cc1 | inconclusive [inhibitor, partial curve, poor fit]
CC(=O)OC1C2CCC1C([N+]1(C)CCCCC1)CC2 (stereo not given) | inactive
CCOc1cc(/C=N/O)ccc1OCc1ccc([N+](=O)[O-])cc1 | inactive
CC1(C(=O)Nc2ccc3c(c2)OCO3)CCN1Cc1cccc2c1OCO2 (stereo not given) | inconclusive [inhibitor, partial curve]
Cc1ccc(-c2cc(-c3ccccc3O)nc(N/N=C/c3cccnc3)n2)cc1 | active: 11.6 µM
CCN(CC)S(=O)(=O)c1ccc(C)c(NC(=O)c2cc(C)oc2C)c1 | inconclusive [inhibitor, partial curve]
NS(=O)(=O)OCc1ccc(C(F)(F)F)cc1 | inconclusive [inhibitor, single point]
Cc1ccc(CNC(=O)COC(=O)c2nc(-c3ccccc3)oc2C)cc1 | inactive
O=C(NCc1ccccc1)c1cccnc1N1CCOCC1 | inactive
C[C@@H]1CCCCO[C@H](CN(C)C(=O)c2ccccc2)[C@@H](C)CN([C@H](C)CO)C(=O)c2cc(NC(=O)NC3CCCCC3)ccc2O1 | inconclusive [inhibitor, single point]
O=C(/C=C/NNC(=O)c1cccc(Br)c1)c1ccccc1 | inconclusive [inhibitor, single point]
CC(C)Oc1ccc(C(=O)CCN2CCCCC2)cc1 | inconclusive [inhibitor, single point]
CC(C)(C)OC(=O)NCCc1nnc(SCc2ccc(Cl)cc2Cl)o1 | inconclusive [inhibitor, single point]
COC(=O)C1=C(C)N(C)C(=O)NC1c1ccc([N+](=O)[O-])o1 (stereo not given) | inconclusive [inhibitor, partial curve, poor fit]
Cc1cc(C)c(C(=O)NC2CC(C)(C)Cc3c2cnn3-c2ccccc2)o1 (stereo not given) | inconclusive [inhibitor, single point]
Cc1nc(C)c(C(=O)NCCC(c2ccccc2)c2ccccc2)o1 | active: 11.6 µM

SMILES | Potency
COC(=O)[C@]12CCCCC=C1N(Cc1ccc3c(c1)OCO3)C(=O)[C@H](CC(=O)NCc1ccc(OC)c(OC)c1)C2 | inconclusive [inhibitor, single point]
CCN(c1ccccc1)S(=O)(=O)c1cc(NC(=O)Nc2ccccc2C#N)ccc1Cl | inconclusive [inhibitor, single point]
Cc1cc(NC(=O)CCCSc2nc(-c3ccco3)cc(C(F)(F)F)n2)n(-c2ccccc2)n1 | active: 20.6 µM
CCOC(=O)c1c(C)oc2c(CC(=O)c3ccccc3)c(Cl)c(O)c(O)c12 | inconclusive [inhibitor, single point]
CCCC(C)NC(=O)CN1C(=O)c2cccc3cccc1c23 (stereo not given) | inactive
Cc1cc(C(=O)N2CCN(c3ccc([N+](=O)[O-])cc3)CC2)no1 | inconclusive [inhibitor, single point]
CN(CC(=O)N1CCCCC1)S(=O)(=O)c1ccc(Cl)cc1 | inconclusive [inhibitor, partial curve]
CCOP(=O)(OCC)c1nc(Cc2ccccc2)oc1NCc1ccccc1 | inconclusive [inhibitor, partial curve, poor fit]
CCc1nn(-c2cc(Cl)ccc2OC)c2c1C(=O)CCC2 | inconclusive [inhibitor, single point]
CNc1cccccc1=S | active: 4.61 µM
Cc1ccc(OCC(=O)N/N=C\c2ccc(C)o2)c([N+](=O)[O-])c1 | inconclusive [inhibitor, single point]
N#Cc1cc2cc3c(cc2nc1N1CCCCC1)OCCO3 | inconclusive [inhibitor, single point]
CC(=O)Nc1cccc(-c2cc(NC(C)=O)c3ncc(-c4cccc(C(C)=O)c4)n3c2)c1 | active: 10.3 µM
CC1CCCCN1C(=O)c1cnn2c1NC(=C1CC1)C=C2C(F)F (stereo not given) | inconclusive [inhibitor, single point]
CCN(CC)C(=O)c1cccc(NC(=O)C2CCN(C(=O)c3cccs3)CC2)c1 | inconclusive [inhibitor, partial curve]
CN(C)C=Nc1c(C(=O)c2ccccc2)sc2nccc(N(C)C)c12 | inconclusive [inhibitor, partial curve, poor fit]
COC(=O)[C@]12CCCCC=C1N(Cc1cccc3ccccc13)C(=O)[C@H](CC(=O)NCc1ccc(C)o1)C2 | active: 20.6 µM
